Data as given in PubChem BioAssay AID1768 (National Center for Advancing Translational Sciences (NCATS), 2009).
Screen size: about 270,000 compounds; about 620 (0.23%) were called active. Inconclusive means that the source gave no clear call. Such entries were picked first, then a sample of the others. Calls come from the whole dose curve; as a rule, active = well fitted inhibition curve with a large enough effect in the polarisation, with a control signal flat (not every such curve was filed as active); inconclusive = small, poorly fitted or top-dose-only effect, or effect the other way, or a change in a side signal; inactive = no such curve, though single readings can be large or run the other way; the % refers to the polarisation. A potency beside an inconclusive call is a rough fit, not a confirmed value. “Side channel” marks fits to a control or component signal instead of the main read-out.

biological target: Menin (Homo sapiens) (UniProt O00255); test: qHTS Assay for Inhibitors Targeting the Menin-MLL Interaction in MLL Related Leukemias: Competition With Texas Red Labeled MLL-derived Mutant Peptide; details: fluorescence polarization; series mostly up to 61.6 µM
Potency is the fitted concentration of half-maximal effect; tags give direction and shape of the fitted curve or compound fluorescence and quenching.

UniProt O00255, sequence (O00255 whole entry, looked up): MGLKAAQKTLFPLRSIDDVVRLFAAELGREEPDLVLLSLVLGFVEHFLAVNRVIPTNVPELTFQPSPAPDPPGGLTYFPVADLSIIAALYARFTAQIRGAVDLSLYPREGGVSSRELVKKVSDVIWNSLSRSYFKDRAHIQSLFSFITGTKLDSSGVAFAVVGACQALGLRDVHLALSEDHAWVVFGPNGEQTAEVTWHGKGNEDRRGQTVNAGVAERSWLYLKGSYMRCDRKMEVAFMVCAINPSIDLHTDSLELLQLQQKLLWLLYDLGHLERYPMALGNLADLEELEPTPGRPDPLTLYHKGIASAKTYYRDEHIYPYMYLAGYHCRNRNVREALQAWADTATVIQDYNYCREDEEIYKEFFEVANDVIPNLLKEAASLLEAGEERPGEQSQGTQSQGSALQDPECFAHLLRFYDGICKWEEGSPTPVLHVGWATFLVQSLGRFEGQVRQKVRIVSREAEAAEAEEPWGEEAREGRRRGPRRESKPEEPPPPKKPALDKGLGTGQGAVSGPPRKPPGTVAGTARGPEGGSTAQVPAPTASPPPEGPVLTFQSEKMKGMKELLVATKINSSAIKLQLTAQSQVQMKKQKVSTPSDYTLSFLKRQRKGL

Structure (SMILES) | Potency
COc1ccc(CN2CCN(C(=O)c3ccco3)CC2)cc1OCc1ccccc1 | inconclusive: 25.1 µM [inhibitor, partial curve]
Nc1cccc(-c2nc3ccccc3s2)c1 | inconclusive: 25.1 µM [quencher, side channel, single point]
Cn1c(=O)c2c(nc(SCC(=O)NCc3ccc4c(c3)OCO4)n2Cc2ccc(F)cc2)n(C)c1=O | inconclusive: 22.4 µM [quencher, side channel, single point]
CC(C)(C)Nc1nc(Cl)nc(Nc2ccccc2)n1 | inactive
O=C1CN(S(=O)(=O)c2cc(C(=O)O)ccc2Cl)c2ccccc2N1 | inconclusive: 31.6 µM [quencher, side channel, single point]
O=C(CSc1ccc(C(F)(F)F)cc1[N+](=O)[O-])Nc1ccccc1 | inconclusive: 5.62 µM [quencher, side channel, partial curve]
O=C(Nc1ccccc1)Nc1cccc2cccnc12 | inconclusive: 20 µM [quencher, side channel, partial curve]
CC(C)(C)OC(=O)N1CSC[C@H]1C(=O)NC[C@H](CC(=O)O)c1ccc(Cl)cc1 | inactive
COc1ccc(OCC(=O)Nc2ccc(NC(=O)c3cccs3)cc2)cc1 | inconclusive: 39.8 µM [inhibitor, single point]
O=C(Cc1ccc(Nc2nc3ccc(Br)cc3[nH]2)cc1)NCCc1cccs1 | inconclusive: 14.1 µM [quencher, side channel, partial curve]
COc1ccc(-c2cc(=O)c3c(O)c(OC)c(O)cc3o2)cc1 | inconclusive: 11.2 µM [quencher, side channel, partial curve]
CN(C)c1cccc(C(=O)NNC(=S)NC2CC3CCC2C3)c1 (stereo not given) | inconclusive: 22.4 µM [inhibitor, partial curve, poor fit]
Oc1ccccc1/C=N/NC(=S)NCCc1ccccc1 | inconclusive: 22.4 µM [quencher, side channel, partial curve]
O=C(c1ccccc1)C1CCN(CC(=O)N2CCN(c3ccccc3)CC2)CC1 | inconclusive: 25.1 µM [fluorescent, side channel, partial curve]
FC(F)(F)c1cc(NC(=S)Nc2ccc3cc4ccccc4cc3c2)cc(C(F)(F)F)c1 | inconclusive: 22.4 µM [quencher, side channel, single point]
CCN1CCc2c(sc(NC(=O)Nc3ccc(Cl)c(Cl)c3)c2C(N)=O)C1 | inconclusive: 15.8 µM [quencher, side channel, partial curve]
Cc1ccc(-c2nc(S(=O)(=O)c3ccccc3)c(SCC(=O)NCC3CCCO3)o2)cc1 (stereo not given) | inactive
OCCC1CN(CC#Cc2ccccc2)CCN1Cc1ccccc1F (stereo not given) | inconclusive: 39.8 µM [fluorescent, side channel, single point]
CCN(CCCNC(=O)c1cn(CC)c2ccc(S(=O)(=O)N(C)C)cc2c1=O)c1cccc(C)c1 | inconclusive: 11.2 µM [quencher, side channel, partial curve]
C/C=C(/C)C(=O)O[C@@H]1[C@H](OC(=O)C=C(C)C)c2c(ccc3ccc(=O)oc23)OC1(C)C | inconclusive: 1 µM [fluorescent, side channel, full curve, poor fit]
NS(=O)(=O)c1ccc(N=Nc2c(O)c(C(=O)O)cc3ccccc23)cc1 | inconclusive: 12.6 µM [quencher, side channel, partial curve]
Cc1ccc2oc(=O)c3c4cc(O)c(O)cc4oc3c2c1 | inconclusive: 25.1 µM [quencher, side channel, partial curve]
Cc1cc(N2CCOCC2)ccc1/C=C1\NC(=O)N(Cc2ccccc2)C1=O | inconclusive: 14.1 µM [quencher, side channel, partial curve]
Cc1cc2c(cc1[N+](=O)[O-])NC(CNC(C)C)CC2 (stereo not given) | inactive
Clc1ccc(CNC2CCN(Cc3ccccc3)CC2)cc1 | inconclusive: 14.1 µM [inhibitor, partial curve]
COc1ccc(OC)c(/C(O)=C/C(=O)C(=O)Nc2cc(C)ccc2OC)c1 | inconclusive: 39.8 µM [quencher, side channel, single point]
COc1ccc(C(=O)Oc2ccc(/C=N/NC(=O)c3ccccc3OC)cc2[N+](=O)[O-])cc1 | inactive
CN(C)C(=O)COC(=O)/C=C/c1cn(-c2ccccc2)nc1-c1cccs1 | inconclusive: 28.2 µM [quencher, side channel, partial curve]

Structure (SMILES) | Potency
CCN(CC)CC(C(=O)N(CC)CC)P(=O)(c1ccccc1)c1ccccc1 (stereo not given) | inconclusive: 11.2 µM [inhibitor, full curve]
NCCSc1c(-c2ccccc2)[nH]c2ccccc12 | inconclusive: 22.4 µM [quencher, side channel, partial curve]
COc1ccc(/C=C/C(=O)NC(=S)Nc2ccc(S(=O)(=O)Nc3ccc(OC)nn3)cc2)cc1 | inconclusive: 7.94 µM [quencher, side channel, partial curve]
Cc1ccc(NC(=O)c2c(C(=O)Nc3ccccc3)sc3nc(C)cc(=O)n23)cc1 | inconclusive: 39.8 µM [fluorescent, side channel, single point]
O=C(Nc1ccccc1)N1C2CCC1CC(O)(c1cccnc1)C2 (stereo not given) | inconclusive: 0.891 µM [inhibitor, full curve, poor fit]
O=C(O)c1ccc2c(c1)C(=O)N(NC(=O)c1ccccc1)C2=O | inactive
COc1cc(/C=C2/SC(=S)N(Cc3ccccc3)C2=O)ccc1O | inconclusive: 15.8 µM [fluorescent, side channel, partial curve]
O=[N+]([O-])c1cccc(-c2nc(NCc3ccccc3)c3ccccc3n2)c1 | inconclusive: 2.51 µM [quencher, side channel, full curve]
Oc1ccc(/C=N/Nc2cccc3cccnc23)c(O)c1 | inconclusive: 17.8 µM [quencher, side channel, partial curve]
COc1ccc2nc(N=Nc3ccc(O)c4ccccc34)sc2c1 | inconclusive: 12.6 µM [quencher, side channel, partial curve]
COc1cccc2cc(C(=O)Nc3ccccc3C)/c(=N/O)oc12 | inconclusive: 11.2 µM [fluorescent, side channel, partial curve]
CC(C)C[C@H](NC(=O)c1nc[nH]c1C(=O)NCc1ccccc1)C(=O)OC(C)(C)C | inconclusive: 17.8 µM [fluorescent, side channel, partial curve]
Cc1cccc(-n2cc(-c3ccc([N+](=O)[O-])cc3)[nH]c2=S)c1 | inconclusive: 28.2 µM [quencher, side channel, single point]
N#CCSc1nn(-c2ccc(F)cc2)c(=S)s1 | inconclusive: 28.2 µM [quencher, side channel, single point]
COc1ccc(N(CC(=O)Nc2ccccc2C(N)=O)S(=O)(=O)c2ccc(C)c([N+](=O)[O-])c2)cc1 | inconclusive: 11.2 µM [quencher, side channel, partial curve]
COC(=O)[C@H](Cc1ccccc1)NC(=O)[C@@]1(C)C[C@@H]1[C@@H](NC(=O)OCc1ccccc1)c1ccccc1 | inconclusive: 1 µM [fluorescent, side channel, full curve, poor fit]
COc1ccc(OC)c(/C=C(\NC(=O)c2ccccc2)C(=O)N/N=C/c2ccc(C)s2)c1 | inconclusive: 39.8 µM [inhibitor, single point]
CCOC(=O)C1=C(C)N=C2c3ccccc3C(=O)C2C1c1ccc(C)cc1 (stereo not given) | inconclusive: 7.94 µM [quencher, side channel, partial curve]
CC(=O)c1ccc(N2CCN(C(=O)c3ccc4c(Cl)c5c(nc4c3)CCCC5)CC2)cc1 | inconclusive: 2.24 µM [fluorescent, side channel, full curve, poor fit]
Cc1cc(C)c2cc(CN(CCO)C(c3nnnn3Cc3ccc(F)cc3)C(C)C)c(=O)[nH]c2c1 (stereo not given) | inactive
O=C(Nc1nc2cc3c(cc2s1)OCCO3)c1cccc(S(=O)(=O)N2CCOCC2)c1 | inconclusive: 25.1 µM [quencher, side channel, single point]
CCn1c2ccccc2c2cc(NC(=O)COC(=O)c3cc(S(N)(=O)=O)c(Cl)cc3Cl)ccc21 | inconclusive: 7.94 µM [quencher, side channel, partial curve]
COc1cc(OC)cc(C2=Nn3c(nnc3-c3cccc(OC)c3)SC2)c1 | inconclusive: 12.6 µM [inhibitor, partial curve]
CN1CCN(S(=O)(=O)c2ccc(NC(=S)NC(=O)c3ccc(Cl)cc3)cc2)CC1 | inconclusive: 2.51 µM [quencher, side channel, full curve, poor fit]
C=CCN1C(=O)/C(=C2/Sc3ccccc3N2C)SC1=Nc1c(C)n[nH]c1C | inconclusive: 22.4 µM [quencher, side channel, single point]
Cc1cccc(C(=O)NC(=S)NNC(=O)c2cccs2)c1 | inconclusive: 35.5 µM [quencher, side channel, single point]
O=C1/C(=C/N(C(=O)c2ccco2)c2ccc(Br)cc2)Sc2ccccc21 | inconclusive: 22.4 µM [fluorescent, partial curve]
